# Experimental data reported in the supplement of paper PMC8728848.
# The list shows a part of the results.
# Assays:
# Assay in all cases: glycan array binding signal (z-score within array); higher = stronger binding
# Settings in all cases: glycan notation: IUPAC condensed, linker removed
# [1] = target: GlcNAc(b1-3)Gal(b1-4)GlcNAc(b1-3)Gal(b1-4)GlcNAc(b1-3)Gal(b1-4)GlcNAc(b1-3)Gal(b1-4)GlcNAc(b1-2)Man(a1-3)[GlcNAc(b1-3)Gal(b1-4)GlcNAc(b1-3)Gal(b1-4)GlcNAc(b1-3)Gal(b1-4)GlcNAc(b1-3)Gal(b1-4)GlcNAc(b1-2)Man(a1-6)]Man(b1-4)GlcNAc(b1-4)GlcNAc
# Procedure, shortened: (§1)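 The binding signal is a Z-score computed within each array and averaged over linkers. Arrays of the same protein sequence at different concentrations or buffers were also averaged together. Data originate from 3228 arrays in the Consortium for Functional Glycomics database, kept only where the protein sequence was available.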
# [2] = target: GlcNAc(b1-3)Gal(b1-4)GlcNAc(b1-3)Gal(b1-4)GlcNAc(b1-3)Gal(b1-4)GlcNAc(b1-3)Gal(b1-4)GlcNAc(b1-2)Man(a1-3)[GlcNAc(b1-3)Gal(b1-4)GlcNAc(b1-3)Gal(b1-4)GlcNAc(b1-3)Gal(b1-4)GlcNAc(b1-3)Gal(b1-4)GlcNAc(b1-2)Man(a1-6)]Man(b1-4)GlcNAc(b1-4)[Fuc(a1-6)]GlcNAc
# Procedure, shortened: as §1
# [3] = target: GlcNAc(b1-3)Gal(b1-4)GlcNAc(b1-3)Gal(b1-4)GlcNAc(b1-3)Gal(b1-4)GlcNAc(b1-3)Gal(b1-4)GlcNAc(b1-2)[GlcNAc(b1-3)Gal(b1-4)GlcNAc(b1-3)Gal(b1-4)GlcNAc(b1-3)Gal(b1-4)GlcNAc(b1-3)Gal(b1-4)GlcNAc(b1-6)]Man(a1-6)[GlcNAc(b1-3)Gal(b1-4)GlcNAc(b1-3)Gal(b1-4)GlcNAc(b1-3)Gal(b1-4)GlcNAc(b1-3)Gal(b1-4)GlcNAc(b1-2)Man(a1-3)]Man(b1-4)GlcNAc(b1-4)[Fuc(a1-6)]GlcNAc
# Procedure, shortened: as §1
# [4] = target: GlcNAc(b1-3)Gal(b1-4)GlcNAc(b1-3)Gal(b1-4)GlcNAc(b1-3)GalNAc
# Procedure, shortened: as §1
# [5] = target: GlcNAc(b1-3)Gal(b1-4)GlcNAc(b1-3)GalNAc
# Procedure, shortened: as §1
# [6] = target: GlcNAc(b1-3)Gal(b1-4)GlcNAc(b1-3)[GlcNAc(b1-3)Gal(b1-4)GlcNAc(b1-3)]GalNAc
# Procedure, shortened: as §1
# [7] = target: GlcNAc(b1-3)Gal(b1-4)GlcNAc(b1-6)[Gal(b1-3)]GalNAc
# Procedure, shortened: as §1
# [8] = target: GlcNAc(b1-3)Gal(b1-4)GlcNAc(b1-6)[GlcNAc(b1-3)Gal(b1-3)]GalNAc
# Procedure, shortened: as §1
# [9] = target: GlcNAc(b1-3)Gal(b1-4)GlcNAc(b1-6)[GlcNAc(b1-3)]Gal(b1-4)GlcNAc
# Procedure, shortened: as §1
# GlcNAc(b1-3)GalNAc = target: GlcNAc(b1-3)GalNAc
# Procedure, shortened: as §1
# GlcNAc(b1-3)Man = target: GlcNAc(b1-3)Man
# Procedure, shortened: as §1
# [10] = target: GlcNAc(b1-3)[GlcNAc(b1-4)][GlcNAc(b1-6)]GlcNAc
# Procedure, shortened: as §1
# [11] = target: GlcNAc(b1-3)[GlcNAc(b1-6)]Gal(b1-4)GlcNAc
# Procedure, shortened: as §1
# [12] = target: GlcNAc(b1-3)[GlcNAc(b1-6)]GalNAc
# Procedure, shortened: as §1
# [13] = target: GlcNAc(b1-4)Gal(b1-4)GlcNAc
# Procedure, shortened: as §1
# GlcNAc(b1-4)GlcNAc = target: GlcNAc(b1-4)GlcNAc
# Procedure, shortened: as §1
# [14] = target: GlcNAc(b1-4)GlcNAc(b1-4)GlcNAc
# Procedure, shortened: as §1
# [15] = target: GlcNAc(b1-4)GlcNAc(b1-4)GlcNAc(b1-4)GlcNAc(b1-4)GlcNAc
# Procedure, shortened: as §1
# [16] = target: GlcNAc(b1-4)GlcNAc(b1-4)GlcNAc(b1-4)GlcNAc(b1-4)GlcNAc(b1-4)GlcNAc
# Procedure, shortened: as §1
# [17] = target: GlcNAc(b1-4)[GlcNAc(b1-6)]GalNAc
# Procedure, shortened: as §1
# [18] = target: GlcNAc(b1-6)Gal(b1-4)GlcNAc
# Procedure, shortened: as §1
# GlcNAc(b1-6)GalNAc = target: GlcNAc(b1-6)GalNAc
# Procedure, shortened: as §1
# GlcNAc3Prop(b1-4)GlcNAc = target: GlcNAc3Prop(b1-4)GlcNAc
# Procedure, shortened: as §1
# [19] = target: GlcNAc6S(b1-3)Gal(b1-4)GlcNAc
# Procedure, shortened: as §1
# Kdn(a2-3)Gal(b1-3)GalNAc = target: Kdn(a2-3)Gal(b1-3)GalNAc
# Procedure, shortened: as §1
# Kdn(a2-3)Gal(b1-3)GlcNAc = target: Kdn(a2-3)Gal(b1-3)GlcNAc
# Procedure, shortened: as §1
# Kdn(a2-3)Gal(b1-4)Glc = target: Kdn(a2-3)Gal(b1-4)Glc
# Procedure, shortened: as §1
# Kdn(a2-3)Gal(b1-4)GlcNAc = target: Kdn(a2-3)Gal(b1-4)GlcNAc
# Procedure, shortened: as §1
# [20] = target: Kdn(a2-3)Gal(b1-4)[Fuc(a1-3)]GlcNAc
# Procedure, shortened: as §1
# Kdn(a2-6)Gal(b1-4)GlcNAc = target: Kdn(a2-6)Gal(b1-4)GlcNAc
# Procedure, shortened: as §1
# [21] = target: Man(a1-2)Man(a1-2)Man(a1-3)Man
# Procedure, shortened: as §1
# [22] = target: Man(a1-2)Man(a1-2)Man(a1-6)[Man(a1-3)]Man
# Procedure, shortened: as §1
# Man(a1-2)Man(a1-3)Man = target: Man(a1-2)Man(a1-3)Man
# Procedure, shortened: as §1
# [23] = target: Man(a1-2)Man(a1-3)[Man(a1-2)Man(a1-6)]Man
# Procedure, shortened: as §1
# [24] = target: Man(a1-2)Man(a1-3)[Man(a1-2)Man(a1-6)]Man(a1-6)[Man(a1-2)Man(a1-2)Man(a1-3)]Man
# Procedure, shortened: as §1
# [25] = target: Man(a1-2)Man(a1-3)[Man(a1-2)Man(a1-6)]Man(a1-6)[Man(a1-2)Man(a1-2)Man(a1-3)]Man(b1-4)GlcNAc(b1-4)GlcNAc
# Procedure, shortened: as §1
# [26] = target: Man(a1-2)Man(a1-3)[Man(a1-6)]Man(a1-6)[Man(a1-2)Man(a1-3)]Man(b1-4)GlcNAc(b1-4)GlcNAc
# Procedure, shortened: as §1
# [27] = target: Man(a1-2)Man(a1-6)[Man(a1-3)]Man(a1-6)[Man(a1-2)Man(a1-2)Man(a1-3)]Man
# Procedure, shortened: as §1
# [28] = target: Man(a1-2)Man(a1-6)[Man(a1-3)]Man(a1-6)[Man(a1-2)Man(a1-2)Man(a1-3)]Man(b1-4)GlcNAc(b1-4)GlcNAc
# Procedure, shortened: as §1
# Man(a1-3)[Man(a1-6)]Man = target: Man(a1-3)[Man(a1-6)]Man
# Procedure, shortened: as §1
# [29] = target: Man(a1-3)[Man(a1-6)]Man(a1-6)[Man(a1-2)Man(a1-3)]Man(b1-4)GlcNAc(b1-4)GlcNAc
# Procedure, shortened: as §1
# [30] = target: Man(a1-3)[Man(a1-6)]Man(a1-6)[Man(a1-3)]Man
# Procedure, shortened: as §1
# [31] = target: Man(a1-3)[Man(a1-6)]Man(a1-6)[Man(a1-3)]Man(b1-4)GlcNAc(b1-4)GlcNAc
# Procedure, shortened: as §1
# [32] = target: Man(a1-3)[Man(a1-6)]Man(b1-4)GlcNAc(b1-4)GlcNAc
# Procedure, shortened: as §1
# [33] = target: Man(a1-3)[Man(a1-6)]Man(b1-4)GlcNAc(b1-4)[Fuc(a1-6)]GlcNAc
# Procedure, shortened: as §1
binder,measurement,setting,value
"Gal 1 (Mus musculus), P16045 (protein) MACGLVASNLNLKPGECLKVRGEVASDAKSFVLNLGKDSNNLCLHFNPRFNAHGDANTIVCNTKEDGTWGTEHREPAFPFQPGSITEVCITFDQADLTIKLPDGHEFKFPNRLNMEAINYMAADGDFKIKCVAFE",glycan array binding signal (z-score),[1],-0.029
same,glycan array binding signal (z-score),[2],0.018
same,glycan array binding signal (z-score),[3],0.02
same,glycan array binding signal (z-score),[4],-0.371
same,glycan array binding signal (z-score),[5],-0.347
same,glycan array binding signal (z-score),[6],-0.25
same,glycan array binding signal (z-score),[7],-0.316
same,glycan array binding signal (z-score),[8],-0.396
same,glycan array binding signal (z-score),[9],-0.475
same,glycan array binding signal (z-score),GlcNAc(b1-3)GalNAc,-0.094
same,glycan array binding signal (z-score),GlcNAc(b1-3)Man,-0.409
same,glycan array binding signal (z-score),[10],-0.09
same,glycan array binding signal (z-score),[11],-0.39
same,glycan array binding signal (z-score),[12],-0.292
same,glycan array binding signal (z-score),[13],-0.368
same,glycan array binding signal (z-score),GlcNAc(b1-4)GlcNAc,-0.41
same,glycan array binding signal (z-score),[14],-0.316
same,glycan array binding signal (z-score),[15],-0.359
same,glycan array binding signal (z-score),[16],-0.336
same,glycan array binding signal (z-score),[17],-0.141
same,glycan array binding signal (z-score),[18],-0.455
same,glycan array binding signal (z-score),GlcNAc(b1-6)GalNAc,-0.368
same,glycan array binding signal (z-score),GlcNAc3Prop(b1-4)GlcNAc,0.556
same,glycan array binding signal (z-score),[19],-0.235
same,glycan array binding signal (z-score),Kdn(a2-3)Gal(b1-3)GalNAc,-0.129
same,glycan array binding signal (z-score),Kdn(a2-3)Gal(b1-3)GlcNAc,-0.084
same,glycan array binding signal (z-score),Kdn(a2-3)Gal(b1-4)Glc,-0.251
same,glycan array binding signal (z-score),Kdn(a2-3)Gal(b1-4)GlcNAc,-0.026
same,glycan array binding signal (z-score),[20],-0.15
same,glycan array binding signal (z-score),Kdn(a2-6)Gal(b1-4)GlcNAc,-0.407
same,glycan array binding signal (z-score),[21],-0.249
same,glycan array binding signal (z-score),[22],-0.155
same,glycan array binding signal (z-score),Man(a1-2)Man(a1-3)Man,-0.297
same,glycan array binding signal (z-score),[23],-0.392
same,glycan array binding signal (z-score),[24],-0.423
same,glycan array binding signal (z-score),[25],0.079
same,glycan array binding signal (z-score),[26],-0.347
same,glycan array binding signal (z-score),[27],0.008
same,glycan array binding signal (z-score),[28],-0.317
same,glycan array binding signal (z-score),Man(a1-3)[Man(a1-6)]Man,-0.332
same,glycan array binding signal (z-score),[29],0.925
same,glycan array binding signal (z-score),[30],-0.285
same,glycan array binding signal (z-score),[31],-0.238
same,glycan array binding signal (z-score),[32],-0.209
same,glycan array binding signal (z-score),[33],-0.16
